The whole screen tested about 150,000 compounds, of which about 540 (0.36%) showed an effect of 50% or more. The list shows a part of the results.
The molecules below were run on Plasmodium falciparum (assay: Primary screen in NF54 nanoGlo assay, in single point, at 2uM, 72h; a lower Z score goes with more inhibition). Details: timepoint 72 hour.
Format: functional, Erythrocyte

| Compound | % Inhibition [%] | Z score |
| --- | --- | --- |
| COc1ccc(NC(=O)[C@H](C)n2nc(-c3ccccc3)c3c(c2=O)CCCC3)cc1 | -7 | 1 |
| Clc1ccc([C@@H](Nc2ccc3nnnn3n2)c2ccsc2)cc1 | -2 | 0.24 |
| N#Cc1nccnc1N1CCc2ccc(O)cc2C1 | 7 | -1.01 |
| CCN(C[C@H]1CCCCO1)S(=O)(=O)Cc1ccc(Cl)cc1 | -4 | 0.54 |
| CCc1[nH]c(=O)sc1S(=O)(=O)NCC1(CC)CC1 | -9 | 0.97 |
| Oc1ccccc1C1=Nc2ccccc2C(c2ccccc2)(c2ccccc2)O1 | 27 | -3.1 |
| Cc1c(C(=O)N2CCCC[C@H]2c2ncon2)ccn1C | -42 | 4.94 |
| Cc1cc(C)c(C(=O)NCCN2C(=O)COC2=O)c(C)c1 | 1 | -0.22 |
| Cc1nc(C)c(C)c(NCC2(S(N)(=O)=O)CCC2)n1 | 2 | -0.47 |
| Cc1cc(Cn2c(=O)n(Cc3ccccc3)c3ccncc32)on1 | 30 | -0.64 |
| Cc1cc(CS(=O)(=O)Nc2ccc(F)cn2)no1 | 0 | 0 |
| CC1(C)CCc2nnc(-c3ccccc3)n2C1 | 7 | -0.91 |
| COCC[C@H](C)N1CCC2(CC1)CN(CCc1ccccc1)C(=O)O2 | 11 | -1.65 |
| CC1CN(Cc2ccccn2)CCC1Nc1ccc(OC(F)F)cn1 (stereo not drawn) | -4 | 0.34 |
| Cc1cc(C(=O)Nc2ccc(N3CCNC(=O)C3)nc2)c(C)n1Cc1ccccn1 | -14 | 2.64 |
| COc1ccnc(CN2C[C@H](C)[C@@](O)(C3CC3)C2)c1 | -15 | 2.25 |
| CC(C)OC[C@@H](O)CN1CCCCC1 | -4 | 0.56 |
| CC1CCN(S(=O)(=O)[C@H]2CCS(=O)(=O)C2)CC1 | -12 | 1.39 |
| C#Cc1cccc(NC(=O)C(=O)NCc2nc(-c3ccco3)n[nH]2)c1 | -7 | 0.85 |
| CCCc1ccc(OCc2ccc(C(=O)n3cc(Cl)cn3)o2)cc1 | -1 | 0.14 |
| C#Cc1cc(F)c(NC(=O)N[C@@H](C)Cc2c(C)noc2C)c(F)c1 | 0 | -0.02 |

| Compound | % Inhibition [%] | Z score |
| --- | --- | --- |
| Cc1ccc(F)cc1NC(=O)Cn1cnc2nc(N3CCOCC3)sc2c1=O | -2 | 0.29 |
| COCCC1(CNC(=O)N[C@@H]2CC=CCC2)CCC1 | 1 | -0.13 |
| CC(C)n1ncc2cc(CN3[C@@H]4C[C@H]5CC[C@]4(CS3(=O)=O)C5(C)C)cnc21 | -7 | 0.59 |
| O=C(NC[C@H]1CCOC1)c1cccc(-c2c[nH]c(C(=O)N3CCOCC3)c2)c1 | -3 | 0.51 |
| CCCS(=O)(=O)c1c(S(=O)(=O)CCC)c2c3ccccc3ccn2c1C(=O)c1ccc(F)cc1 | -1 | 0.09 |
| COCCN(CCS(=O)(=O)c1ccccc1)C1CCCC1 | -22 | 3 |
| CC1(C)CC(=O)N(CCCO[C@@H]2CCCCO2)C1=O | -10 | 1.25 |
| CCOC(=O)Nc1cc(NC(=O)OCC)c(N2CCCC2=O)cc1C | -1 | 0.07 |
| CCS(=O)(=O)NCC(=O)NCc1cc2c(s1)CCCCC2 | 5 | -0.58 |
| O=C(c1cc(-c2cccnc2)nc2ccccc12)N1CCN(c2ccccc2)CC1 | -7 | 1.33 |
| O=C(c1ccc2c(c1)OCCO2)N1CCN(c2ncccn2)CC1 | -15 | 2.87 |
| Cc1ccc(C(=O)OCC(=O)NC(=O)Nc2ccccc2F)cn1 | -9 | 1.72 |
| COc1ccccc1-n1cnc2cc(C(=O)N3CCCC3)ccc2c1=O | 36 | -4.04 |
| COCCOCC(=O)N1CC(Oc2ccccc2-c2nc(C3CC3)no2)C1 | 0 | 0.04 |
| NC(=O)C1CCN(C(=O)c2nc[nH]c2C(=O)NCc2ccccc2)CC1 | -1 | 0.13 |
| CC[C@@]1(C)CN(C(=O)Nc2ccc(C)c(-c3ncco3)c2)CCO1 | -1 | 0.05 |
| Cc1nc(N(C)C)nc(-c2cccc(C(=O)NCc3n[nH]c(=O)[nH]3)c2)c1C | 7 | -0.85 |
| Cc1ccnc(N2CCC[C@H]2c2noc(C)n2)n1 | -1 | 0.08 |
| C=CCn1c(=O)c2ccccc2n(CC(=O)NC2CCCCC2)c1=O | 31 | -3.55 |
| O=C1CCN(Cc2ccc(C(F)(F)F)cc2)CCC[C@H](C(=O)N2CCN(c3ccccn3)CC2)CCN1 | -17 | 2.14 |
| COc1ccc2[nH]c(CN3CCN(c4cc(O)nc(N)n4)CC3)c(C)c2c1 | -5 | 0.9 |

| Compound | % Inhibition [%] | Z score |
| --- | --- | --- |
| Cc1[nH]ccc1C(=O)Nc1ccccc1-c1cc(F)c(F)c(F)c1 | 1 | -0.17 |
| O=C(c1cc2ccc(Cl)cc2[nH]1)N1CC(O)CC1c1cccc(F)c1 (stereo not drawn) | -9 | 0.89 |
| Cc1ccc(C(=O)N2CCC(Cc3ccc(CN4CCCCC4)cc3)CC2)cn1 | -5 | 0.97 |
| CCOc1ncccc1CNC(=O)c1ccc([C@H](C)N2CCCCC2)o1 | -12 | 1.12 |
| CC(Cn1cccn1)NC(c1ccc(Cl)cc1)C1CN(C)CCO1 (stereo not drawn) | -3 | 0.3 |
| Cc1cc2sc(NC(=O)N3CCC(C(C)O)C3)nc2s1 (stereo not drawn) | -13 | 1.58 |
| COc1ccccc1NC(=O)[C@H]1Nc2cc(C(F)(F)F)ccc2S(=O)(=O)N1 | -6 | 1.05 |
| O=C(CCn1nc2ccccn2c1=O)NCCCc1nccs1 | -2 | 0.21 |
| COc1ccc(-c2nc(-c3ccc(Cl)cc3)c(NC(=O)c3ccccc3)s2)cc1OC | -1 | 0.19 |
| Cn1nnc2c1C[C@@H](NC(=O)C(C)(C)N1CCOCC1)CC2 | -9 | 1.19 |
| CCN(Cc1nc2cc(Cl)ccc2c(=O)[nH]1)C(=O)Cc1ccccc1C | -13 | 2.42 |
| CCOCC(=O)Nc1cc(C)nn1[C@H]1CCN(Cc2ccccc2)C1 | -5 | 0.75 |
| CC[C@@](C)(CCO)NCc1cccn1C | 2 | -0.34 |
| CCc1cc(-c2c(C#N)c(N)nc3c2COCC3)[nH]n1 | 1 | -0.18 |
| CCOCCOc1nc(-c2cccc(OC)c2)n(-c2ccc(NC(=O)Nc3cccc(OC)c3)cc2)n1 | 6 | -0.67 |
| O=C(CN1CCC(O)(c2cccc3cnccc23)CC1)NCC1CC1 | -2 | 0.33 |
| CC1CN(C(=O)Cc2noc(C=CC3(C)CCOCC3)n2)CC(C)O1 (stereo not drawn) | -9 | 1.92 |
| CN1CCN([C@H]2CCN(c3ccc4ccccc4n3)C2)CC1 | 1 | -0.18 |
| CN(CC#CCNC(=O)Cc1ccc(F)cc1)Cc1ccccc1 | -2 | 0.19 |
| Cc1noc(C)c1C(=O)Nc1ncnn1C(C)(C)C | -12 | 2.22 |
| COc1nc2c(c(C)nn2-c2ccc(C)cc2)c(C)c1CCC(=O)NCc1cccc(Cl)c1 | -8 | 1.13 |

| Compound | % Inhibition [%] | Z score |
| --- | --- | --- |
| CC(=O)Nc1c(C)noc1/C=C\c1ccc(S(=O)(=O)Nc2ccc(C)c(C)c2)cc1 | -6 | 0.92 |
| CCC(=O)N1CCC(C(NC(=O)c2ccc(OC)cc2)C(=O)NC(C)C(C)C)CC1 (stereo not drawn) | -3 | 0.47 |
| C[C@H](C(=O)N(Cc1ccncc1)C1CC1)c1ccccc1 | 11 | -1.32 |
| COc1cccc(C(=O)N(Cc2c(-c3cccc(C)c3)noc2N2CCOCC2)C2CC2)c1 | 27 | -3.65 |
| O=C1NCCc2cc(OCc3noc(-c4cccs4)n3)ccc21 | -13 | 1.67 |
| O=C(O)C[C@@H]1CCN(C(=O)COc2ccccc2)C[C@@H]1Cc1nc2ccccc2[nH]1 | 10 | -1.55 |
| CCN(CC)C(=O)Cn1ncn2nc(-c3cccc4ccccc34)cc2c1=O | -10 | 1.33 |
| O=C(c1csc2ccccc12)N1CCCCCCC1 | -11 | 1.52 |
| CCn1nccc1C(=O)N1CCc2c(c(NC(=O)c3ccccc3)nn2C)C1 | 4 | -0.35 |
| CCN(C)c1ccccc1CNC(=O)N[C@@H](C)c1ncc(C)s1 | -6 | 0.81 |
| CC[C@H](C)N(Cc1ccc(OS(=O)(=O)C(C)C)cc1)C(=O)C(C)C | -9 | 1.32 |
| COc1cc2c(cc1CN(C)Cc1cc(C3CC3)[nH]n1)OCCCO2 | -12 | 2.35 |
| Cc1ocnc1CNC(=O)N1CCC[C@H]1COc1ccc(F)cc1 | -9 | 1.6 |
| Cc1n[nH]c(C)c1NC(=O)Nc1ncc(Cc2ccccc2)s1 | -2 | 0.24 |
| c1c[nH]c(-c2nc(C3CCOCC3)n[nH]2)c1 | -6 | 1.12 |
| CN(Cc1ccccc1OCCCn1ccnc1)[C@H]1COC[C@@H]1O | -1 | 0.08 |
| Cc1nc(C)n(CCNc2nc3c(s2)c(C)nn3C)n1 | -2 | 0.33 |
| CCOc1cccc(S(=O)(=O)N(C)c2ccc(C)nn2)c1 | -9 | 0.97 |
| CCc1c(C)c(C(=O)N2CCOCC2)n(Cc2ccc(F)c(F)c2)c1C | -16 | 1.59 |
| COc1ccccc1CCNC(=O)C1CN(c2nc3c(F)cccc3s2)C1 | -1 | 0.17 |
| O=C(CN(C[C@H]1CCCO1)C(=O)c1ccc(Cl)c(Cl)c1)N(Cc1ccc(F)cc1)Cc1cccs1 | -4 | 0.39 |

From ChEMBL document CHEMBL4888484, “Replenishing the malaria drug discovery pipeline: Screening and hit evaluation of the MMV Hit Generation Library 1 (HGL1) against asexual blood stage Plasmodium falciparum ,using a nano luciferase reporter read-out” (2022)
